Measurements published in the antibiotic and cytotoxicity screens of Wong et al. (2023).
The list shows a part of the results.

Each molecule was assayed on S. aureus RN4220 (assay: growth inhibition call (relative growth <= 0.2)). Conditions: 50 µM.

| Compound | growth inhibition call |
| --- | --- |
| CO[C@@H]1CN(C)C(=O)c2ccc(NC(=O)CN(C)C)cc2OC[C@@H](C)N(C(=O)c2ccncc2)C[C@H]1C | inactive |
| COc1ccc2c3c(n(c2c1)C)[C@H](CO)N(Cc1cc(cc(c1)OC)OC)C[C@]13CCN(CC1)S(=O)(=O)c1cn(cn1)C | inactive |
| CN(C)CCN1CCc2ncc(Cn3cncn3)n2CC1 | inactive |
| C[C@H](CO)N1C[C@H](C)[C@H](CN(C)Cc2ccc(C(=O)O)cc2)Oc2c(NC(=O)c3ccncc3)cccc2C1=O | inactive |
| C[C@@H]1CCCCO[C@@H](CN(C)C(=O)Nc2cccc3ccccc23)[C@H](C)CN([C@H](C)CO)C(=O)c2cc(NS(=O)(=O)c3ccccc3)ccc2O1 | inactive |
| C[C@@H]1CCCCO[C@H](CN(C)S(=O)(=O)c2cccs2)[C@H](C)CN([C@@H](C)CO)C(=O)c2cc(NC(=O)C3CCCCC3)ccc2O1 | inactive |
| C[C@H]1CN([C@@H](C)CO)C(=O)Cc2cc(NS(=O)(=O)c3ccc(Cl)cc3)ccc2O[C@@H]1CN(C)C(=O)Nc1cccc2ccccc12 | inactive |
| Cc1noc(C)c1S(=O)(=O)Nc1ccc2c(c1)C(=O)N([C@@H](C)CO)C[C@H](C)[C@H](CN(C)C)OCCCC[C@H](C)O2 | inactive |
| CC(C)(C)[S@@](=O)N1Cc2cc(C(=O)NCCN3CCCCC3)nc(-c3cccc(-c4ccc(C#N)cc4)c3)c2[C@H]1CCO | inactive |
| CO[C@@H]1CN(C)C(=O)c2cc(NS(=O)(=O)CC(F)(F)F)ccc2OC[C@H](C)N(C(=O)c2ccc3c(c2)OCO3)C[C@H]1C | inactive |
| COc1ccc(NC(=O)N2C[C@H](O)COC[C@@H]3O[C@@H](CC(=O)NC4Cc5ccccc5C4)CC[C@H]32)cc1 | inactive |
| Cc1cc(C(=O)Nc2cccc3c2O[C@H](CN(C)S(=O)(=O)c2cn(C)cn2)[C@H](C)CN([C@H](C)CO)C3=O)n(C)n1 | inactive |
| C[C@@H]1CN([C@H](C)CO)C(=O)c2cc(C#CCN(C)C)cnc2O[C@H]1CN(C)C(=O)CN1CCOCC1 | inactive |
| Cc1c(O)c(=O)ccn1C | inactive |
| CCN(CC)C(=O)c1ccc(O)c(OC)c1 | inactive |
| O=C(C[C@@H]1CC[C@@H](NC(=O)c2ccc(F)cc2)[C@@H](CO)O1)NCc1ccncn1 | inactive |
| C[C@@H]1CN([C@H](C)CO)C(=O)c2cc(NC(=O)Nc3ccc4c(c3)OCO4)ccc2O[C@@H](C)CCCCO[C@@H]1CN(C)Cc1ccc(Cl)c(Cl)c1 | inactive |
| CC(C)NC(=O)Nc1ccc2c(c1)C(=O)N([C@H](C)CO)C[C@H](C)[C@H](CN(C)Cc1ccc(Cl)c(Cl)c1)OCCCC[C@H](C)O2 | inactive |
| CC[C@@H](C)NCCCCOc1ccc(Cl)cc1C(C)(C)C | active |
| Cc1noc(C)c1NC(=O)Nc1cccc2c1O[C@H](CN(C)C(=O)Nc1ccc(C(F)(F)F)cc1)[C@@H](C)CN([C@@H](C)CO)C2=O | inactive |

| Compound | growth inhibition call |
| --- | --- |
| COCC#Cc1ccc([C@H]2[C@H](CO)N3C(=O)CN(C(=O)C4CCOCC4)C[C@@H]23)cc1 | inactive |
| C[C@@H]1CCCCO[C@H](CN(C)C(=O)Nc2ccccc2)[C@H](C)CN([C@H](C)CO)C(=O)c2cc(NC(=O)Nc3ccc(F)cc3)ccc2O1 | inactive |
| O=C(C[C@@H]1CC[C@H]2NC[C@H](O)COC[C@@H]2O1)NCCN1CCCC1 | inactive |
| C[C@H]1CN([C@@H](C)CO)C(=O)c2cc(NS(=O)(=O)c3cn(C)cn3)ccc2O[C@@H]1CN(C)C(=O)Nc1ccccc1 | inactive |
| Fc1cc2ccncc2cc1Cl | inactive |
| COc1ccc(NC(=O)Nc2ccc3c(c2)C(=O)N([C@@H](C)CO)C[C@@H](C)[C@@H](CN(C)C(=O)CCC(F)(F)F)OCCCC[C@H](C)O3)cc1 | inactive |
| C[C@H]1CN([C@@H](C)CO)C(=O)c2cccc(NC(=O)NC3CCCCC3)c2O[C@@H]1CN(C)S(=O)(=O)c1cn(C)cn1 | inactive |
| C#CCN1C(=O)C[C@H](O)C1=O | inactive |
| CC(C)NC(=O)Nc1cccc2c1O[C@@H](CN(C)C(=O)Nc1ccc3c(c1)OCO3)[C@@H](C)CN([C@H](C)CO)C2=O | inactive |
| CC[C@@H](N)C12CC3CC(CC(C3)C1)C2 | inactive |
| COc1ccc(C[C@@H](N)C(=O)N[C@@H]2[C@@H](O)[C@@H](n3cnc4c(N(C)C)ncnc43)O[C@@H]2CO)cc1 | active |
| C[C@@H]1CN([C@@H](C)CO)C(=O)c2cc(NS(=O)(=O)c3ccccc3)ccc2O[C@@H](C)CCCCO[C@@H]1CN(C)Cc1ccc(C(=O)O)cc1 | inactive |
| C[C@@H]1CN([C@@H](C)CO)C(=O)c2cc(NC(=O)CCC(F)(F)F)ccc2O[C@@H]1CN(C)Cc1ccc(C(F)(F)F)cc1 | inactive |
| Cc1noc(C)c1NC(=O)Nc1ccc2c(c1)C(=O)N([C@H](C)CO)C[C@H](C)[C@H](CN(C)S(=O)(=O)c1cccs1)OCCCC[C@H](C)O2 | inactive |
| C[C@@H]1CCCCO[C@@H](CN(C)C(=O)Nc2cccc3ccccc23)[C@@H](C)CN([C@H](C)CO)C(=O)c2cc(NC(=O)Nc3ccccc3)ccc2O1 | inactive |
| C[C@H]1CCCCO[C@@H](CN(C)C(=O)Nc2ccc(C(F)(F)F)cc2)[C@@H](C)CN([C@@H](C)CO)C(=O)c2cc(NS(C)(=O)=O)ccc2O1 | inactive |
| COc1ccc2c3c(n(c2c1)C)[C@H](CO)N(C[C@]13CN(C1)C(=O)CN(C)C)C(=O)CN(C)C | inactive |
| COc1ccc(CN(C)C[C@H]2Oc3ccc(NS(=O)(=O)c4c(C)noc4C)cc3C(=O)N([C@H](C)CO)C[C@H]2C)cc1 | inactive |
| C[C@H](CO)N1C[C@H](C)[C@@H](CN(C)C(=O)CN(C)C)Oc2cc(-c3ccc(C#N)cc3)ccc2S1(=O)=O | inactive |
| COc1ccc(S(=O)(=O)N(C)C[C@H]2OCCCC[C@H](C)Oc3ccc(NS(C)(=O)=O)cc3C(=O)N([C@@H](C)CO)C[C@@H]2C)cc1 | inactive |
